# Measured values reported in the supplement of paper PMC10037445.
# Whole data set: some 2,900 compounds, median “NF-kB SEAP reporter activity, fold change vs agonist alone” near 0.99, cut for the highest 2% near 2.6. The list shows a part of the results.
# How the values were obtained:
# RAW-Dual [1] = experiment: NF-kB SEAP reporter activity, fold change vs agonist alone; higher = enhanced NF-kB activity
# Procedure, shortened: (§1)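 Cytotoxic wells were those whose IncuCyte confluency was below 70% of agonist controls in both mask sets. The cells were RAW-Dual macrophages at 50,000 cells/well in DMEM on 384-well plates, dosed with 50 nL of library stock by pin tool, stimulated with a PRR agonist 1 h later, and kept at 37 °C, 5% CO2 for 20 hours. IRF and NF-κB reporter activity, as fold change over agonist-alone wells, came from supernatant read by QuantiLuc luminescence and QuantiBlue absorbance, respectively.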
# RAW-Dual [2] = experiment: NF-kB SEAP reporter activity, fold change vs agonist alone; cytotoxicity flag (confluency mask): not cytotoxic; higher = enhanced NF-kB activity
# Procedure, shortened: as §1
# RAW-Dual [3] = experiment: NF-kB SEAP reporter activity, fold change vs agonist alone; cytotoxicity flag (confluency mask): cytotoxic (confluency <70% of control); higher = enhanced NF-kB activity
# Procedure, shortened: as §1
# [4] = library stock concentration (final ~1000-fold dilution): 10 mM, cytotoxicity flag (confluency mask): not cytotoxic, agonist: Imiquimod (TLR7) […]
# [5] = library stock concentration (final ~1000-fold dilution): 10 mM, cytotoxicity flag (confluency mask): not cytotoxic, agonist: MPLA (TLR4) […]
# [6] = agonist: ODN 1826 (TLR9) 0.5 ug/mL
# [7] = agonist: Pam2CSK4 (TLR2/6) 0.1 ug/mL
# [8] = agonist: Pam3CSK4 (TLR2/1) 0.1 ug/mL
# [9] = library stock concentration (final ~1000-fold dilution): 10 mM, cytotoxicity flag (confluency mask): cytotoxic (confluency <70% of control), agonist: MPLA (TLR4) […]
compound,measurement,setting,value
Nc1ccc(S(=O)(=O)c2ccc(N)cc2)cc1,NF-kB SEAP reporter activity,RAW-Dual [1]; [4],0.991
same,NF-kB SEAP reporter activity,RAW-Dual [1]; [5],1.01
Nc1ccc(S(=O)(=O)c2ccc(N)cc2)cc1 (library stock concentration (final ~1000-fold dilution): 10 mM),NF-kB SEAP reporter activity,RAW-Dual [2]; agonist: LPS (TLR4) 0.1 ug/mL,1.18
same,NF-kB SEAP reporter activity,RAW-Dual [2]; [6],1.08
same,NF-kB SEAP reporter activity,RAW-Dual [2]; [7],1.08
same,NF-kB SEAP reporter activity,RAW-Dual [2]; [8],1.04
O=C(c1ccc(C(=O)N2CCC(N3CCCC3)CC2)c(Nc2ccccc2)c1)N1CCC(N2CCCC2)CC1 (library stock concentration (final ~1000-fold dilution): 10 mM),NF-kB SEAP reporter activity,RAW-Dual [2]; agonist: LPS (TLR4) 0.1 ug/mL,0.933
same,NF-kB SEAP reporter activity,RAW-Dual [2]; [6],0.944
same,NF-kB SEAP reporter activity,RAW-Dual [2]; [7],1.04
same,NF-kB SEAP reporter activity,RAW-Dual [2]; [8],1.33
O=C(c1ccc(C(=O)N2CCC(N3CCCC3)CC2)c(Nc2ccccc2)c1)N1CCC(N2CCCC2)CC1,NF-kB SEAP reporter activity,RAW-Dual [1]; [4],0.917
same,NF-kB SEAP reporter activity,RAW-Dual [1]; [5],1.12
OCCN1CCN(CCCN2c3ccccc3Sc3ccc(Cl)cc32)CC1 (library stock concentration (final ~1000-fold dilution): 10 mM),NF-kB SEAP reporter activity,RAW-Dual [3]; agonist: LPS (TLR4) 0.1 ug/mL,1.07
same,NF-kB SEAP reporter activity,RAW-Dual [3]; [6],0.527
same,NF-kB SEAP reporter activity,RAW-Dual [3]; [7],0.739
same,NF-kB SEAP reporter activity,RAW-Dual [3]; [8],0.763
OCCN1CCN(CCCN2c3ccccc3Sc3ccc(Cl)cc32)CC1,NF-kB SEAP reporter activity,RAW-Dual [1]; [9],1.58
CN(CCN1CCC(OC(=O)Nc2ccccc2-c2ccccc2)CC1)C(=O)c1ccc(CN2CCC(C(N)=O)CC2)cc1 (library stock concentration (final ~1000-fold dilution): 10 mM),NF-kB SEAP reporter activity,RAW-Dual [2]; agonist: LPS (TLR4) 0.1 ug/mL,1.25
same,NF-kB SEAP reporter activity,RAW-Dual [2]; [6],0.452
same,NF-kB SEAP reporter activity,RAW-Dual [2]; [7],0.943
same,NF-kB SEAP reporter activity,RAW-Dual [2]; [8],0.848
CN(CCN1CCC(OC(=O)Nc2ccccc2-c2ccccc2)CC1)C(=O)c1ccc(CN2CCC(C(N)=O)CC2)cc1,NF-kB SEAP reporter activity,RAW-Dual [1]; [5],1.08
C=CCN1CCCC1CNC(=O)c1cc2nn[nH]c2cc1OC.Cl (stereo unspecified) (library stock concentration (final ~1000-fold dilution): 10 mM),NF-kB SEAP reporter activity,RAW-Dual [2]; agonist: LPS (TLR4) 0.1 ug/mL,1.03
same,NF-kB SEAP reporter activity,RAW-Dual [2]; [6],0.958
same,NF-kB SEAP reporter activity,RAW-Dual [2]; [7],1.01
same,NF-kB SEAP reporter activity,RAW-Dual [2]; [8],1.17
C=CCN1CCCC1CNC(=O)c1cc2nn[nH]c2cc1OC.Cl (stereo unspecified),NF-kB SEAP reporter activity,RAW-Dual [1]; [4],0.951
same,NF-kB SEAP reporter activity,RAW-Dual [1]; [5],1.03
O=C(Nc1cc(C(F)(F)F)ccc1C(F)(F)F)c1cc(Br)ccc1O (library stock concentration (final ~1000-fold dilution): 10 mM),NF-kB SEAP reporter activity,RAW-Dual [3]; agonist: LPS (TLR4) 0.1 ug/mL,2.68
same,NF-kB SEAP reporter activity,RAW-Dual [3]; [6],1.82
same,NF-kB SEAP reporter activity,RAW-Dual [3]; [7],0.573
same,NF-kB SEAP reporter activity,RAW-Dual [3]; [8],0.839
O=C(Nc1cc(C(F)(F)F)ccc1C(F)(F)F)c1cc(Br)ccc1O,NF-kB SEAP reporter activity,"RAW-Dual [1]; library stock concentration (final ~1000-fold dilution): 10 mM, cytotoxicity flag (confluency mask): cytotoxic (confluency <70% of control), agonist: Imiquimod (TLR7) […]",0.255
same,NF-kB SEAP reporter activity,RAW-Dual [1]; [9],2.3
CCCCNNC(=O)c1ccc(Br)cc1 (library stock concentration (final ~1000-fold dilution): 10 mM),NF-kB SEAP reporter activity,RAW-Dual [2]; agonist: LPS (TLR4) 0.1 ug/mL,3.15
same,NF-kB SEAP reporter activity,RAW-Dual [2]; [6],2.18
same,NF-kB SEAP reporter activity,RAW-Dual [2]; [7],0.64
same,NF-kB SEAP reporter activity,RAW-Dual [2]; [8],0.656
CCCCNNC(=O)c1ccc(Br)cc1,NF-kB SEAP reporter activity,RAW-Dual [1]; [4],1.95
same,NF-kB SEAP reporter activity,RAW-Dual [1]; [5],2.28
CNc1nc(Nc2cnn(C3CCN(C4COC4)CC3F)c2Cl)ncc1C(F)(F)F (stereo unspecified) (library stock concentration (final ~1000-fold dilution): 10 mM),NF-kB SEAP reporter activity,RAW-Dual [2]; agonist: LPS (TLR4) 0.1 ug/mL,0.973
same,NF-kB SEAP reporter activity,RAW-Dual [2]; [6],1.06
same,NF-kB SEAP reporter activity,RAW-Dual [2]; [7],1.24
same,NF-kB SEAP reporter activity,RAW-Dual [2]; [8],1.57
CNc1nc(Nc2cnn(C3CCN(C4COC4)CC3F)c2Cl)ncc1C(F)(F)F (stereo unspecified),NF-kB SEAP reporter activity,RAW-Dual [1]; [4],1.06
same,NF-kB SEAP reporter activity,RAW-Dual [1]; [5],1.27
O=c1c2ccccc2nc(/C=C/c2cccnc2)n1Cc1ccccc1,NF-kB SEAP reporter activity,RAW-Dual [1]; [4],0.86
same,NF-kB SEAP reporter activity,RAW-Dual [1]; [5],0.915
O=c1c2ccccc2nc(/C=C/c2cccnc2)n1Cc1ccccc1 (library stock concentration (final ~1000-fold dilution): 10 mM),NF-kB SEAP reporter activity,RAW-Dual [2]; agonist: LPS (TLR4) 0.1 ug/mL,0.688
same,NF-kB SEAP reporter activity,RAW-Dual [2]; [6],0.988
same,NF-kB SEAP reporter activity,RAW-Dual [2]; [7],1.22
same,NF-kB SEAP reporter activity,RAW-Dual [2]; [8],0.491
CC(=O)Oc1cccc2c1C(=O)c1c(OC(C)=O)cc(C(=O)O)cc1C2=O (library stock concentration (final ~1000-fold dilution): 10 mM),NF-kB SEAP reporter activity,RAW-Dual [2]; agonist: LPS (TLR4) 0.1 ug/mL,1.62
same,NF-kB SEAP reporter activity,RAW-Dual [2]; [6],1.08
same,NF-kB SEAP reporter activity,RAW-Dual [2]; [7],1.41
same,NF-kB SEAP reporter activity,RAW-Dual [2]; [8],1.34
CC(=O)Oc1cccc2c1C(=O)c1c(OC(C)=O)cc(C(=O)O)cc1C2=O,NF-kB SEAP reporter activity,RAW-Dual [1]; [4],0.961
same,NF-kB SEAP reporter activity,RAW-Dual [1]; [5],1.07
CC(C)(C#N)c1ccc(N2C(=O)OCc3cnc4ccc(-c5cnc6ccccc6c5)cc4c32)cc1,NF-kB SEAP reporter activity,RAW-Dual [1]; [4],0.847
same,NF-kB SEAP reporter activity,RAW-Dual [1]; [5],1.16
CC(C)(C#N)c1ccc(N2C(=O)OCc3cnc4ccc(-c5cnc6ccccc6c5)cc4c32)cc1 (library stock concentration (final ~1000-fold dilution): 10 mM),NF-kB SEAP reporter activity,RAW-Dual [2]; agonist: LPS (TLR4) 0.1 ug/mL,0.974
same,NF-kB SEAP reporter activity,RAW-Dual [2]; [6],0.919
same,NF-kB SEAP reporter activity,RAW-Dual [2]; [7],0.699
same,NF-kB SEAP reporter activity,RAW-Dual [2]; [8],0.989
CN(C)c1ccc(-c2nc3c(N4CCN(CC(=O)Nc5nccs5)CC4)c(Cl)cnc3[nH]2)cc1 (library stock concentration (final ~1000-fold dilution): 2 mM),NF-kB SEAP reporter activity,RAW-Dual [2]; agonist: LPS (TLR4) 0.1 ug/mL,1.07
same,NF-kB SEAP reporter activity,RAW-Dual [2]; [6],1.3
same,NF-kB SEAP reporter activity,RAW-Dual [2]; [7],1.07
same,NF-kB SEAP reporter activity,RAW-Dual [2]; [8],1.49
CN(C)c1ccc(-c2nc3c(N4CCN(CC(=O)Nc5nccs5)CC4)c(Cl)cnc3[nH]2)cc1,NF-kB SEAP reporter activity,"RAW-Dual [1]; library stock concentration (final ~1000-fold dilution): 2 mM, cytotoxicity flag (confluency mask): not cytotoxic, agonist: Imiquimod (TLR7) […]",1.22
same,NF-kB SEAP reporter activity,"RAW-Dual [1]; library stock concentration (final ~1000-fold dilution): 2 mM, cytotoxicity flag (confluency mask): not cytotoxic, agonist: MPLA (TLR4) […]",1.24
O=C1c2ccc(Nc3ccc(F)cc3F)cc2CCc2ccc(OCC(O)CO)cc21 (stereo unspecified) (library stock concentration (final ~1000-fold dilution): 10 mM),NF-kB SEAP reporter activity,RAW-Dual [2]; agonist: LPS (TLR4) 0.1 ug/mL,0.949
same,NF-kB SEAP reporter activity,RAW-Dual [2]; [6],0.401
same,NF-kB SEAP reporter activity,RAW-Dual [2]; [7],0.236
same,NF-kB SEAP reporter activity,RAW-Dual [2]; [8],0.38
O=C1c2ccc(Nc3ccc(F)cc3F)cc2CCc2ccc(OCC(O)CO)cc21 (stereo unspecified),NF-kB SEAP reporter activity,RAW-Dual [1]; [4],0.817
same,NF-kB SEAP reporter activity,RAW-Dual [1]; [5],1.33
